Laboratory results as given in the supplement of paper PMC9174493.
Where a name gives a salt, the structure may show the parent alone. This is one part of the list. Single values of this set are uncertain. Values with irradiation are relative to irradiated vehicle.

Assays:
[1] = tested on: A549-Dual; experiment: NF-kB reporter (SEAP) activity, viability-corrected, relative to vehicle (fold change vs vehicle); higher = more activation of STING-IRF / NF-kB immune response reporter; details: 10 µM
[2] = tested on: A549-Dual; experiment: ISRE reporter (Lucia luciferase) activity, viability-corrected, relative to vehicle (fold change vs vehicle); higher = more activation of STING-IRF / NF-kB immune response reporter; details: 10 µM
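For NF-kB reporter (SEAP) activity, viability-corrected, relative to vehicle in this document: viability correction based on the alamar blue assay, with concentrations leaving 10% survival or less dropped.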

SMILES | NF-kB reporter ([1]; irradiation: 8 Gy/4 fr) | NF-kB reporter ([1]; irradiation: none) | ISRE reporter ([2]; irradiation: 8 Gy/4 fr) | ISRE reporter ([2]; irradiation: none)
CCCCC1OC(=O)c2ccccc21 (stereo not drawn) [3-n-Butylphathlide] | 0.824 | 0.625 | 0.714 | 0.628
Clc1ccc(C(Cn2ccnc2)OCc2csc3c(Cl)cccc23)c(Cl)c1.O=[N+]([O-])O (stereo not drawn) [Sertaconazole nitrate] | 0.471 | 0.715 | 0.418 | 0.59
CN(C/C=C/C#CC(C)(C)C)Cc1cccc2ccccc12.Cl [Terbinafine HCl] | 0.736 | 1.01 | 0.976 | 0.861
O=c1ccc2ccc(OCCCCN3CCN(c4cccc5sccc45)CC3)cc2[nH]1 [Brexpiprazole] | 0.599 | 0.98 | 0.591 | 0.931
N=c1cc(N2CCCCC2)nc(N)n1OS(=O)(=O)O [Minoxidil sulphate] | 1.46 | 0.754 | 1.62 | 0.916
CC1=C(C(=O)O)N2C(=O)C(NC(=O)C(N)c3ccc(O)cc3)C2SC1.O (stereo not drawn) [Cefadroxil hydrate] | 0.71 | 0.815 | 0.694 | 0.744
Cl.N=C(N)NC(=O)c1nc(Cl)c(N)nc1N.O.O [Amiloride HCl dihydrate] | 0.815 | 1.3 | 0.733 | 0.932
Cc1ncc([N+](=O)[O-])n1CC(O)CCl (stereo not drawn) [Ornidazole] | 0.855 | 0.954 | 0.862 | 0.808
C/C(=C(\CCOC(=O)C(C)C)SS/C(CCOC(=O)C(C)C)=C(/C)N(C=O)Cc1cnc(C)nc1N)N(C=O)Cc1cnc(C)nc1N [Sulbutiamine] | 0.582 | 1.17 | 0.495 | 0.564
Cc1cc(N2CCN(C3CNC(C(=O)N4CCSC4)C3)CC2)n(-c2ccccc2)n1 (stereo not drawn) [Teneligliptin hydrobromide] | 0.986 | 0.91 | 0.965 | 1.08
CC(C)(CO)C(O)C(=O)NCCCO (stereo not drawn) [D panthenol] | 0.742 | 0.554 | 0.715 | 0.423
COC(=O)/C=C/c1ccccc1 [Methyl cinnamate] | 0.9 | 0.521 | 0.786 | 0.536
C=C=CCNC(=O)c1ccc(F)cc1 [Diastase] | 0.869 | 0.633 | 0.723 | 0.443
CC(C)=CCCC(C)(OC1OC(CO)C(O)C(O)C1O)C1CCC2(C)C1C(O)CC1C3(C)CCC(O)C(C)(C)C3C(OC3OC(CO)C(O)C(O)C3OC3OCC(O)C(O)C3O)CC12C (stereo not drawn) [Notoginsenoside R1] | 0.784 | 0.695 | 0.723 | 0.634
Cc1cccc(Nc2ccccc2C(=O)O)c1C [Mefenamic Acid] | 0.892 | 1.13 | 0.702 | 0.694
OCc1ccc(Cl)cc1Cl [2,4-dichlorobenzyl alcohol] | 0.809 | 1.04 | 0.862 | 1.01
Nc1nc2c(ncn2C2OC(CO)C(O)C2O)c(=O)[nH]1 (stereo not drawn) [Guanosine] | 1.05 | 0.761 | 1.13 | 0.884
CN(CC(=O)O)C(=N)N [Creatine] | 0.94 | 1.11 | 0.864 | 1.02
CCN(CC)CCOC(=O)C(c1ccccc1)C1CCCCC1.Cl (stereo not drawn) [Drofenine Hydrochloride] | 0.848 | 0.675 | 0.835 | 0.736

SMILES | NF-kB reporter ([1]; irradiation: 8 Gy/4 fr) | NF-kB reporter ([1]; irradiation: none) | ISRE reporter ([2]; irradiation: 8 Gy/4 fr) | ISRE reporter ([2]; irradiation: none)
CCNC1CC(N)C(OC2OC(CN)=CCC2N)C(O)C1OC1OCC(C)(O)C(NC)C1O.CCNC1CC(N)C(OC2OC(CN)=CCC2N)C(O)C1OC1OCC(C)(O)C(NC)C1O.O=S(=O)(O)O.O=S(=O)(O)O.O=S(=O)(O)O.O=S(=O)(O)O.O=S(=O)(O)O (stereo not drawn) [Netilmicin Sulfate] | 1.01 | 0.982 | 0.747 | 0.986
CCCCC1=NC2(CCCC2)C(=O)N1Cc1ccc(-c2ccccc2-c2nn[nH]n2)cc1 [Irbesartan] | 0.885 | 0.993 | 0.778 | 0.736
C=CCc1ccccc1OCC(O)CNC(C)C.Cl (stereo not drawn) [Alprenolol hydrochloride] | 0.88 | 1.03 | 0.718 | 0.72
CC1(C)CCC2(C(=O)O)CCC3(C)C(=CCC4C5(C)CCC(O)C(C)(CO)C5CCC43C)C2C1 (stereo not drawn) [Hederagenin] | 0.511 | 0.646 | 0.268 | 0.508
CN1CCOC(c2ccccc2)c2ccccc2C1.Cl (stereo not drawn) [Nefopam HCl] | 0.749 | 2.02 | 0.64 | 0.975
OCc1ccccc1O [2-Hydroxybenzyl alcohol] | 0.943 | 1.02 | 0.848 | 0.647
CC(NCc1ccc(OCc2cccc(F)c2)cc1)C(N)=O.CS(=O)(=O)O (stereo not drawn) [Safinamide Mesylate] | 0.77 | 0.912 | 0.961 | 0.952
COC(=O)Nc1nc2ccc(Sc3ccccc3)cc2[nH]1 [Fenbendazole] | 0.79 | 1.98 | 0.185 | 1.08
CCCCOc1cc(C(=O)NCCN(CC)CC)c2ccccc2n1 [Cinchocaine] | 1.5 | 0.677 | 1.86 | 0.98
NCC1OC(OC2C(N)CC(N)C(OC3OC(CO)C(O)C(N)C3O)C2O)C(N)CC1O (stereo not drawn) [Tobramycin] | 0.82 | 0.851 | 0.873 | 0.929
CC(S)C(=O)NCC(=O)O (stereo not drawn) [Tiopronin] | 0.764 | 1.02 | 0.878 | 0.816
COc1ccc(OC)c(C(O)CNC(=O)CN)c1.Cl (stereo not drawn) [Midodrine hydrochloride] | 0.626 | 1.15 | 0.66 | 0.886
CC1=C[C@H]2C(=O)O[C@H]3C[C@@H](C/C=C(\C)C[C@@H](C)/C=C/C=C4\CO[C@H](/C1=N\O)[C@@]42O)O[C@@]1(CC[C@H](C)[C@@H](C)O1)C3.CC[C@H]1O[C@]2(CC[C@@H]1C)C[C@@H]1C[C@@H](C/C=C(\C)C[C@@H](C)/C=C/C=C3\CO[C@@H]4/C(=N\O)C(C)=C[C@@H](C(=O)O1)[C@]34O)O2 [Milbemycin Oxime] | 0.628 | 0.734 | 0.765 | 0.749
CCCNC1CCc2nc(N)sc2C1.Cl.Cl.O (stereo not drawn) [Pramipexole 2HCl Monohydrate] | 0.771 | 0.76 | 0.658 | 0.606
CO/N=C(\C(=O)NC1C(=O)N2C(C(=O)O)=C(COC(C)=O)CSC12)c1csc(N)n1 (stereo not drawn) [Cefotaxime] | 0.934 | 1.09 | 0.75 | 0.722
NS(=O)(=O)c1ccccc1 [Benzenesulfonamide] | 1.35 | 0.847 | 1.31 | 0.773
C#CCNC1CCc2ccccc21 (stereo not drawn) [Rasagiline] | 0.903 | 1.13 | 0.698 | 0.661
COc1ccc(CNc2nc(N3CCCC3CO)ncc2C(=O)NCc2ncccn2)cc1Cl (stereo not drawn) [Avanafil] | 0.749 | 0.842 | 0.667 | 0.805
